{"sequences": {"note": "Amino acid sequences for entries named in this document (tags omitted).", "UniProt Q91VC3": "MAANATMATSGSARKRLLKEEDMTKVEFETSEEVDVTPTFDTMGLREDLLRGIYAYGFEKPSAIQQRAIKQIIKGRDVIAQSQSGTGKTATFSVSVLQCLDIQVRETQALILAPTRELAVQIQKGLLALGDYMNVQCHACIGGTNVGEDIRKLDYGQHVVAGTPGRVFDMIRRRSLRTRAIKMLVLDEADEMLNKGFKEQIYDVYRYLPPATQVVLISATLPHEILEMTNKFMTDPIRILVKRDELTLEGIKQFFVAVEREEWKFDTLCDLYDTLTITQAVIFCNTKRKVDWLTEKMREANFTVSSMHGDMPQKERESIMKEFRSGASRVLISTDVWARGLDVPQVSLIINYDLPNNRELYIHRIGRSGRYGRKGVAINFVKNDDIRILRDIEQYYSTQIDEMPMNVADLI", "UniProt O35691": "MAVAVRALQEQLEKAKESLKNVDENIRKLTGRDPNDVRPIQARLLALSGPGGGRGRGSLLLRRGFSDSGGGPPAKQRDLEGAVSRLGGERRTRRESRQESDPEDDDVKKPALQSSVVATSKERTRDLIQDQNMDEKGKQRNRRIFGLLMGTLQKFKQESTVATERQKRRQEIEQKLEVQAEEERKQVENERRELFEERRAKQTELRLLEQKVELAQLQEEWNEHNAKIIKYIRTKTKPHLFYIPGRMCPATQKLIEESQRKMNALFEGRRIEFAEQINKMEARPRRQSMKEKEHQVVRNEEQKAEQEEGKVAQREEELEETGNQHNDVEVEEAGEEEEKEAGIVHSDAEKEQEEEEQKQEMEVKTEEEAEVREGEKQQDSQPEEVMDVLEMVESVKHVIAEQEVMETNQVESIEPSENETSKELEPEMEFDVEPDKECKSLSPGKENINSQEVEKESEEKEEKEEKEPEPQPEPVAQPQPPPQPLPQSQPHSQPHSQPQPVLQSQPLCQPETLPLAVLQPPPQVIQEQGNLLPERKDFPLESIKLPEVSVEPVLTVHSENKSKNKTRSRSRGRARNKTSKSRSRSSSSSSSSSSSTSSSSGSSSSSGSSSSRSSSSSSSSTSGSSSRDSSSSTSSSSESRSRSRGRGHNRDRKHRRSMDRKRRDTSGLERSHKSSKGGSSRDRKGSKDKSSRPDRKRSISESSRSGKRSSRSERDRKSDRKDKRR"}, "source": "paper PMC10166177", "molecules": {"B1": {"name": "SF3a120 (protein, UniProt Q8K4Z5 1-791)", "chain": "MQAGPVQAVPPPPPVATESKQPIEEEASSKEDPTPSKPVVGIIYPPPEVRNIVDKTASFVARNGPEFEARIRQNEINNPKFNFLNPNDPYHAYYRHKVSEFKEGKAQEPSAAIPKVMQQQQQATQQQLPQKVQAQVIQETIVPKEPPPEFEFIADPPSISAFDLDVVKLTAQFVARNGRQFLTQLMQKEQRNYQFDFLRPQHSLFNYFTKLVEQYTKILIPPKGLFSKLKKEAENPREVLDQVCYRVEWAKFQERERKKEEEEKEKERVAYAQIDWHDFVVVETVDFQPNEQGNFPPPTTPEELGARILIQERYEKFGESEEVEMEVESDEEDQEKAEETPSQLDQDTQVQDMDEGSDDEEEGQKVPPPPETPMPPPLPPTPDQVIVRKDYDPKASKPLPPAPAPDEYLVSPITGEKIPASKMQEHMRIGLLDPRWLEQRDRSIREKQSDDEVYAPGLDIESSLKQLAERRTDIFGVEETAIGKKIGEEEIQKPEEKVTWDGHSGSMARTQQAAQANITLQEQIEAIHKAKGLVPEDDTKEKIGPSKPNEIPQQPPPPSSATNIPSSAPPITSVPRPPAMPPPVRTTVVSAVPVMPRPPMASVVRLPPGSVIAPMPPIIHAPRINVVPMPPAAPPIMAPRPPPMIVPTAFVPAPPVAPVPAPAPMPPVHPPPPMEDEPPSKKLKTEDSLMPEEEFLRRNKGPVSIKVQVPNMQDKTEWKLNGQGLVFTLPLTDQVSVIKVKIHEATGMPAGKQKLQYEGIFIKDSNSLAYYNMASGAVIHLALKERGGRKK"}, "B2": {"name": "SF3a66 (protein, UniProt Q62203 1-475)", "chain": "MDFQHRPGGKTGSGGVASSSESNRDRRERLRQLALETIDINKDPYFMKNHLGSYECKLCLTLHNNEGSYLAHTQGKKHQTNLARRAAKEAKEAPAQPAPEQVKVEVKKFVKIGRPGYKVTKQRDTEMGQQSLLFQIDYPEIAEGIMPRHRFMSAYEQRIEPPDRRWQYLLMAAEPYETIAFKVPSREIDKAEGKFFFLQFHFKMEKPPAPPSLPAGPPGVKRPPPPLMNGLPPRPPLPDALPPPPPGGLPLPPMPPTGPAPSGPPGPPQMPPPAPGVHPPAPVVHPPTSGVHPPAPGVHPPAPVVHPPTSGVHPPAPGVHPPTPGVHPPAPGVHPPAPGVHPPAPGVHPPTPGVHPPAPGVHPPAPGVHPPAPGVHPPPSAGVHPQAPGVHPPAPAVHPQAPGVHPPAPGIHPQAPGVHPQPPPGVHPAAPGVHPQPPGVHPSNPGVHPAPMPPMLRPPLPSDGPGNMPPPPPGN"}, "B3": {"name": "SF3b130 (protein, UniProt Q921M3 1-1217)", "chain": "MFLYNLTLQRATGISFAIHGNFSGTKQQEIVVSRGKILELLRPDPNTGKVHTLLTVEVFGVIRSLMAFRLTGGTKDYIVVGSDSGRIVILEYQPSKNMFEKIHQETFGKSGCRRIVPGQFLAVDPKGRAVMISAIEKQKLVYILNRDAAARLTISSPLEAHKANTLVYHVVGVDVGFENPMFACLEMDYEEADNDPTGEAAANTQQTLTFYELDLGLNHVVRKYSEPLEEHGNFLITVPGGSDGPSGVLICSENYITYKNFGDQPDIRCPIPRRRNDLDDPERGMIFVCSATHKTKSMFFFLAQTEQGDIFKITLETDEDMVTEIRLKYFDTVPVAAAMCVLKTGFLFVASEFGNHYLYQIAHLGDDDEEPEFSSAMPLEEGDTFFFQPRPLKNLVLVDELDSLSPILFCQIADLANEDTPQLYVACGRGPRSSLRVLRHGLEVSEMAVSELPGNPNAVWTVRRHIEDEFDAYIIVSFVNATLVLSIGETVEEVTDSGFLGTTPTLSCSLLGDDALVQVYPDGIRHIRADKRVNEWKTPGKKTIVKCAVNQRQVVIALTGGELVYFEMDPSGQLNEYTERKEMSADVVCMSLANVPPGEQRSRFLAVGLVDNTVRIISLDPSDCLQPLSMQALPAQPESLCIVEMGGTEKQDELGERGSIGFLYLNIGLQNGVLLRTVLDPVTGDLSDTRTRYLGSRPVKLFRVRMQGQEAVLAMSSRSWLSYSYQSRFHLTPLSYETLEFASGFASEQCPEGIVAISTNTLRILALEKLGAVFNQVAFPLQYTPRKFVIHPESNNLIIIETDHNAYTEATKAQRKQQMAEEMVEAAGEDERELAAEMAAAFLNENLPESIFGAPKAGNGQWASVIRVMNPIQGNTLDLVQLEQNEAAFSVAVCRFSNTGEDWYVLVGVAKDLILSPRSVAGGFVYTYKLVNNGEKLEFLHKTPVEEVPAAIAPFQGRVLIGVGKLLRVYDLGKKKLLRKCENKHIANYISGIQTIGHRVIVSDVQESFIWVRYKRNENQLIIFADDTYPRWVTTASLLDYDTVAGADKFGNICVVRLPPNTNDEVDEDPTGNKALWDRGLLNGASQKAEVIMNYHVGETVLSLQKTTLIPGGSESLVYTTLSGGIGILVPFTSHEDHDFFQHVEMHLRSEHPPLCGRDHLSFRSYYFPVKNVIDGDLCEQFNSMEPNKQKNVSEELDRTPPEVSKKLEDIRTRYAF"}, "B4": {"name": "Syf1 (protein, UniProt Q9DCD2 1-855)", "chain": "MVVMARVPRSERPDLVFEEEDLPYEEEIMRNQFSVKCWLRYIEFKQGAPKPRLNQLYERALKLLPCSYKLWYRYLKARRAQVKHRCVTDPAYEDVNNCHERAFVFMHKMPRLWLDYCQFLMDQGRVTHTRRTFDRALRALPITQHSRIWPLYLRFLRSHPLPETAVRGYRRFLKLSPESAEEYIEYLKSSDRLDEAAQRLATVVNDERFVSKAGKSNYQLWHELCDLISQNPDKVQSLNVDAIIRGGLTRFTDQLGKLWCSLADYYIRSGHFEKARDVYEEAIRTVMTVRDFTQVFDSYAQFEESMIAAKMETASELGREEEDDVDLELRLARFEQLISRRPLLLNSVLLRQNPHHVHEWHKRVALHQGRPREIINTYTEAVQTVDPFKATGKPHTLWVAFAKFYEDNGQLDDARVILEKATKVNFKQVDDLASVWCQCGELELRHENYDEALKLLRKATALPARRAEYFDGSEPVQNRVYKSLKVWSMLADLEESLGTFQSTKAVYDRILDLRIATPQIVINYAMFLEEHKYFEESFKAYERGISLFKWPNVSDIWSTYLTKFISRYGGRKLERARDLFEQALDGCPPKYAKTLYLLYAQLEEEWGLARHAMAVYDRATRAVEPAQQYDMFNIYIKRAAEIYGVTHTRGIYQKAIEVLSDEHAREMCLRFADMECKLGEIDRARAIYSFCSQICDPRTTGAFWQTWKDFEVRHGNEDTIREMLRIRRSVQATYNTQVNFMASQMLKVSGSATGTVSDLAPGQSGMDDMKLLEQRAEQLAAEAERDQPPRAQSKIFFVRSDASREELAELAQQANPEEIQLGEDEDEDEMDLEPNEVRLEQQSVPAAVFGSLKED"}, "B5": {"name": "SF3a60 (protein, UniProt Q9D554 1-501)", "chain": "METILEQQRRYHEEKERLMDVMAKEMLTKKSTLRDQINSDHRTRAMQDRYMEVSGNLRDLYDDKDGLRKEELNAISGPNEFAEFYNRLKQIKEFHRKHPNEICVPMSVEFEELLKARENPSEEAQNLVEFTDEEGYGRYLDLHDCYLKYINLKASEKLDYITYLSIFDQLFDIPKERKNAEYKRYLEMLLEYLQDYTDRVKPLQDQNELFGKIQTDFEKKWDNGTFPGWPKETSSALTHAGAHLDLSAFSSWEELASLGLDRLKSALLALGLKCGGTLEERAQRLFSTKGKSLESLDTSLFAKNPKSKGTKRDTERNKDIAFLEAQIYEYVEILGEQRQLTHENVQRKQARTGEEREEEEEEQISESESEDEENEIIYNPKNLPLGWDGKPIPYWLYKLHGLNINYNCEICGNYTYRGPKAFQRHFAEWRHAHGMRCLGIPNTAHFANVTQIEDAVSLWAKLKLQKASERWQPDTEEEYEDSSGNVVNKKTYEDLKRQGLL"}, "B6": {"name": "YJU2 (protein, UniProt Q9D6J3 1-314)", "chain": "MSERKVLNKYYPPDFDPSKIPKLKLPKDRQYVVRLMAPFNMRCKTCGEYIYKGKKFNARKETVQNEAYLGLPIFRFYIKCTRCLAEITFKTDPENTDYTMEHGATRNFQAEKLLEEEEKRVQKEREDEELNNPMKVLENRTKDSKLEMEVLENLQELKDLNQRQAHVDFEAMLRQHRMSQEQWQQQQEEEDERETAALLEEARHRRLLEDSESEDEAPPSRPRAAARPNPTAILNEVPQTKRKAEALCSKAQLAGLVVPKKVKTEANGASEQVGVPTAAGAPKSRKADNPTPQTPGTSSLSQLGAYGDSEDSDS"}, "B7": {"name": "CWC25 (protein, UniProt Q9DBF7 1-416)", "chain": "MGGGDLNLKKSWHPQTLRNVEKVWKAEQKHEAERKKIEELQRELREERAREEMQRYAEDVGAVKKKEEKLDWMYQGPGGMVNRDEYLLGRPIDKYVFEKMEEREAGCSSETGLLPGSIFAPSGANSLLDMASKIREDPLFIIRKKEEEKKREVLNNPVKMKKIKELLQMSLEKKEKKKKKEKKKKHRKHKHRSSSSGGSSSEDEQSQARSQKKMANSFPVLSKVPGYGLQVRDSDRNRGLQGSLGEQRAIKNNSRSRSSSPPRHASKKSTKEERPRDRRSRSPSRRSRSPRPSKPHTSKVNRKERDSPSPKKEAYQRRHASGYTRKLSAEELERKRQEMMENAKWREEERLNTLKRHAREDEREHRLERLDSRSGKFLHRMKLESASTSSLEDRVKRNIHSLQRTSVALEKNFMRR"}, "B8": {"name": "tagged RNPS1 (protein, UniProt Q99M28 1-305)", "chain": "MDLSGVKKKSLLGVKENNKKSSTRAPSPTKRKDRSDEKSKDRSKDKGATKESSEKDRGRDKTRKRRSASSGSSSTRSRSSSTSSSGSSTSTGSSSGSSSSSASSRSGSSSTSRSSSSSSSSGSPSPSRRRHDNRRRSRSKSKPPKRDEKERKRRSPSPKPTKVHIGRLTRNVTKDHIMEIFSTYGKIKMIDMPVERMHPHLSKGYAYVEFENPDEAEKALKHMDGGQIDGQEITATAVLAPWPRPPPRRFSPPRRMLPPPPMWRRSPPRMRRRSRSPRRRSPVRRRSRSPGRRRHRSRSSSNSSR"}, "B9": {"name": "RNPS1-Myc (protein, UniProt Q99M28 1-305)", "chain": "B8 chain"}}, "note": "These are yes or no findings as the source states them, for the method shown. In cells and extracts the contact can be indirect. Some results given as binding are weak or reduced against the parent protein; the word gives no strength. Tags and fused reporters may be left off the sequences shown.", "data": [{"target": "T1, tagged SNIP1 (UniProt Q8BIZ6)", "T1 sequence": "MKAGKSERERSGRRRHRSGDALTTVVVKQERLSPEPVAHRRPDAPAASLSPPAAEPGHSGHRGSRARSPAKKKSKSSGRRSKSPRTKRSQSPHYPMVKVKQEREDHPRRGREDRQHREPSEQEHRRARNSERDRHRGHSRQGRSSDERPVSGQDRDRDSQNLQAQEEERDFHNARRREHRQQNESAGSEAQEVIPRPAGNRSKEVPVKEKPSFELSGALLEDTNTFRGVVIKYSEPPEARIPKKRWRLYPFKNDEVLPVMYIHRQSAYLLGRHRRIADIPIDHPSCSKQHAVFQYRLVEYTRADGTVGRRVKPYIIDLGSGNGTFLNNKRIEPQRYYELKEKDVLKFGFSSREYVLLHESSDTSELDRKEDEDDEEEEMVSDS", "assay": "co-IP; N2a cells expressing tagged SNIP1 and the indicated tagged proteins; bait not given", "values": [{"molecule": "eIF4AIII (from UniProt Q91VC3 1-411)", "binding": "no binding"}, {"molecule": "B1", "binding": "binds"}, {"molecule": "B2", "binding": "binds"}, {"molecule": "B3", "binding": "binds"}, {"molecule": "B4", "binding": "binds"}, {"molecule": "B5", "binding": "binds"}, {"molecule": "B6", "binding": "no binding"}, {"molecule": "B7", "binding": "no binding"}]}, {"target": "T1, tagged SNIP1", "assay": "co-IP; N2a cells simultaneously expressing tagged PNN, SNIP1, and RNPS1; bait not given", "values": [{"molecule": "tagged PNN (from UniProt O35691 1-725)", "binding": "binds"}, {"molecule": "B8", "binding": "binds"}]}, {"target": "T2, Flag-tagged full-length SNIP1 (Smad Nuclear Interacting Protein 1) (UniProt Q8BIZ6)", "T2 sequence": "T1 sequence", "assay": "co-IP; N2a cells expressing Flag-tagged full-length or ΔFHA SNIP1 together with RNPS1-Myc", "values": [{"molecule": "B9", "binding": "binds"}]}]}
